Values marked as one replicate rest on one cluster of the flow cell; about a third of the high ones do not repeat.
The sequences below were run on ATP (assay: switch fluorescence ratio, 500 uM ATP over buffer (Cy3 cluster intensity, sum of 5 cycles each) (fold (ratio)); higher = stronger signal-on switching upon ATP binding; sequences stand for … in TCGTCGGCAGCGTCAGATGTGTATAAGAGACAGTTTTTTTTTTTTTTTTTTTTTTTTT…TC). Conditions: aptamer strand: ATP DNA aptamer (quencher-CACCTGGGGGAGTATTGCGGAGGAAGG + anchor), 100 nM annealed; ATP concentration: 500 uM; one replicate.
Method in brief: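 Cy3-labelled switching-strand clusters on a modified Illumina MiSeq flow-cell were annealed to 100 nM quencher-labelled ATP aptamer and imaged first in selection buffer, then after 15 min with 500 uM ATP at 22 °C. NaOH stripping and re-annealing separated each of five buffer/ATP cycles, and clusters outside 100-1000 RFU were excluded. The fluorescence ratio sums target-cycle Cy3 intensity over buffer-cycle Cy3 intensity per cluster and averages it per switch-domain sequence.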
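Further: ATP exposure 15 min at 22 °C before imaging.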

Sequence	switch fluorescence ratio
CTAAACTTTG	0.979
CTAAAGAGTA	1.01
CTAAAGGGTG	1.01
CTAAATGTCT	1
CTAAATTAAG	0.994
CTAACCAAGA	1.01
CTAACCACTG	1.01
CTAAGAAGGC	1.74
CTAAGAGCCA	0.964
CTAAGATCGT	0.978
CTAAGCACGG	1.14
CTAAGCTCGA	1.05
CTAAGTACTA	1.29
CTAAGTCAGT	0.986
CTAATAAGAA	1.01
CTAATAATCT	1.03
CTAATATGTA	1.01
CTAATCAATT	1.02
CTAATGAATC	0.985
CTAATGTCGG	1.02
CTAATTCCTA	1.01
CTACAAACGT	1.38
CTACAACACG	1.2
CTACAAGTTG	0.988
CTACATCCTG	0.948
CTACATGGTC	1

Sequence	switch fluorescence ratio
CTACATTTTC	1.03
CTACCCGCTG	1.68
CTACCGGTGG	1
CTACGCCAGC	2.9
CTACGCTAT	5.02
CTACGCTATT	5.33
CTACGCTTGG	1.91
CTACGTAGTT	1.05
CTACGTATAT	1.89
CTACGTCTAG	1.04
CTACGTGCAA	2.27
CTACGTTGAA	0.998
CTACTACTG	1.04
CTACTATTTG	1.03
CTACTCAACG	1.2
CTACTCTTAC	1.45
CTAGACAGGC	1.05
CTAGAGTAAG	0.956
CTAGCATCGG	1.05
CTAGCCTGCC	0.983
CTAGCGACTA	1.21
CTAGCGCTGC	0.993
CTAGCGGTG	1
CTAGCGGTGG	1.02
CTAGCGTTTG	1.01
CTAGCTAGCG	0.989

Sequence	switch fluorescence ratio
CTAGGAAATA	0.983
CTAGGCGAGG	0.994
CTAGGGACCG	1.07
CTAGGGGAAT	0.98
CTAGGTATT	0.986
CTAGGTCTTA	1.03
CTAGGTTCG	0.928
CTAGTAAGAG	0.967
CTAGTACGAT	1.02
CTAGTAGGA	0.985
CTAGTCCCGT	1.01
CTAGTCGGGG	0.994
CTAGTTCTAT	0.981
CTAGTTGAGC	1
CTAGTTGAGT	0.978
CTAGTTGCTG	0.995
CTATAATCGA	0.934
CTATAATTGA	1
CTATACCAGC	1.07
CTATCTGTT	0.985
CTATCTTAGA	0.998
CTATGACTTC	1.01
CTATGAGCGG	1.02
CTATGATTCT	0.995
CTATGCATAG	0.994
CTATGCCCGA	1.05

Sequence	switch fluorescence ratio
CTATGCTGAG	0.991
CTATGCTGCG	1.01
CTATGGGCGT	0.983
CTATGGTAAG	1
CTATGGTGGC	1.03
CTATGGTGTA	0.984
CTATGTAATC	1.46
CTATGTTGAA	0.998
CTATTATGCA	0.997
CTATTCTAAT	0.975
CTATTGGCAG	0.978
CTATTGGGAA	0.989
CTATTGTTTA	1.01
CTATTTACTT	1.05
CTATTTGAGT	0.943
CTCAAACAGC	1.1
CTCAAAGCCC	1.03
CTCAAAGTGT	0.993
CTCAACAGCC	1.09
CTCAACGGTA	1.06
CTCACCCTTT	1.24
CTCACGATCG	1.03
CTCAGAAAGA	1.03
